Data: the supplement of paper PMC7125110
± gives the standard error. Variants at the floor of the assay are shown more often than the library holds them.

B1: glmS ribozyme (parent)
chain: AUAAAAGCGCCAGAACUACAGAAAUGUAGUUGACGAGGAGGAGGUUUAUCGAAUUUUCGGCGGAUGCCUCCAAA

Variants of: B1
Test: self-cleavage kobs at 2500 uM GlcN6P; higher = faster cleavage; RNA array
Conditions: with glucosamine-6-phosphate
In short: (§1)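 Weighted Michaelis–Menten fits across concentrations supplied kcat and KM, based on kobs from one- or two-exponential decay fits to normalised per-tile medians. The data came from barcoded ribozyme variants transcribed in situ by E. coli RNA polymerase on sequenced MiSeq chips and tracked at 37 °C by a hybridised Cy3 probe. Glucosamine-6-phosphate (40 μM to 10 mM) in HEPES/KCl/Mg(OAc)2 buffer was flowed in.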

Variant | self-cleavage kobs at 2500 uM GlcN6P [s⁻¹]
A33U U45G C70U C71U | < 1e-05
C34A A36C G37U G51U | < 1e-05
C34A A36G C71U | < 1e-05
C34A G35U G59U | < 1e-05
C34A G40U G63C | < 1e-05
C34G G38A G41C U57C C70A C71G | < 1e-05
C34G U45C | < 1e-05
C34U A53C G66U | < 1e-05
C34U A53G U54C G59A | < 1e-05
C34U A64G U69C | < 1e-05
C34U C50A C58G G62C | < 1e-05
C34U G35U U57G G59C A64G C67U | < 1e-05
C34U G38U A42U G63U | < 1e-05
C34U G41A C71U | < 1e-05
G35A U45A U57C C71G | < 1e-05
G35A U47A | < 1e-05
G35C A36C G62A U69G C70G | < 1e-05
G35C G38U U56C | < 1e-05
G35C G40U U47A G59U C61G | < 1e-05
G35C G51C G60A C67U | < 1e-05
G35C U54G C61G C67U | < 1e-05

Variant | self-cleavage kobs at 2500 uM GlcN6P [s⁻¹]
G35U A39C G60U C67U C68U | < 1e-05
G35U G37A G60U | < 1e-05
A36C G41A A53U U65A C67G | < 1e-05
A36C G59C U69C | < 1e-05
A36C G60U | < 1e-05
A36C U54A C61A C67A | 6.51e-05 ± 2.2e-05
A36G G59C C61G | < 1e-05
A36U G41U C71A | < 1e-05
G37A G40C U49C | < 1e-05
G37C A42G | 4.76e-05 ± 1.3e-05
G37C G41C U54A | < 1e-05
G38A G63A A64U | < 1e-05
G38C U57A C71A | < 1e-05
G38U A48U C61A | < 1e-05
G38U G41U U56A G59C | < 1e-05
G38U G59U | < 1e-05
A39C A42G G59U G63C | < 1e-05
A39C C50U G59C | < 1e-05
A39C G41A C70G | < 1e-05
A39C G44C C67A | 0.000176 ± 4.5e-05
A39G G41A G43C G63U | < 1e-05

Variant | self-cleavage kobs at 2500 uM GlcN6P [s⁻¹]
A39G G44A G60U | < 1e-05
A39U U45G C50A U57A | < 1e-05
G40A U45C G63U | < 1e-05
G41A C61A G62A | < 1e-05
G41A G60A C70G | < 1e-05
G41U U56A C61U G66C | < 1e-05
A42G C61A C70A | < 1e-05
A42G U49C C68G | < 1e-05
A42U A48U A64U C68U | < 1e-05
A42U U45C U55A | 6.42e-05 ± 1.1e-05
A42U U47G A52G A64G | < 1e-05
A42U U56A U69G | 0.00299 ± 0.00059
G43A A53G G60U C70U | < 1e-05
G43A U46A U47A A52U C71A | < 1e-05
G43U U49G C61G | < 1e-05
G44A C50A C68U | < 1e-05
G44C U57C C71U | < 1e-05
G44U G60U C71A | < 1e-05
G44U U49C C61A | < 1e-05
U45A A52U C67A | 8.33e-05 ± 2.5e-05
U45C A48C A64U | < 1e-05

Variant | self-cleavage kobs at 2500 uM GlcN6P [s⁻¹]
U45C C58U G59C | < 1e-05
U45G A48C C61G C68A | < 1e-05
U45G U56G A64G | 0.00171 ± 0.00054
U46A A48U U49A | < 1e-05
U46A A52C | < 1e-05
U46G G59C C68U C70A | < 1e-05
A48C U57C | < 1e-05
A48C U57G | < 1e-05
U49G C61U C67G | < 1e-05
C50G A52C U69C C70A | 0.000257 ± 8e-05
G51C C71U | < 1e-05
A52C A53U C70U | < 1e-05
A52G U55C G62A | < 1e-05
A52U U55A A64U | < 1e-05
A53G G63U C71A | < 1e-05
A53U C67A C70A | 5.59e-05 ± 2.7e-05
U54C G60C C68G | < 1e-05
U54G U57A C67G | 7.42e-05 ± 2.5e-05
G59U A64C G66C | < 1e-05
C61A A64U C68U | < 1e-05

Variants of: B1
Test: self-cleavage kobs at 10000 uM GlcN6P; higher = faster cleavage; RNA array
Conditions: with glucosamine-6-phosphate
In short: as §1

Variant | self-cleavage kobs at 10000 uM GlcN6P [s⁻¹]
G35A U47A | < 1e-05
A36C G60U | < 1e-05
G37C A42G | 5.87e-05 ± 1e-05
G41A G60A C70G | < 1e-05
A42U A48U A64U C68U | < 1e-05
G43A U46A U47A A52U C71A | < 1e-05
G44A C50A C68U | < 1e-05
G51C C71U | < 1e-05
U54G U57A C67G | 7.25e-05 ± 1.8e-05
U2C C10U A53U U56A C68U | < 1e-05
A6C A14U A36G C70A | < 1e-05
A6C G9A C34A G40C G43A C50U U54A C58G C68U | < 1e-05
A6C G9U G29U G51A U65C C67G | < 1e-05
A6C G63A U65G | < 1e-05
A6G A42C U54A | < 1e-05
A6G G59C G62A | < 1e-05
A6G U46C U55C C70G | < 1e-05
A6U A42U C50U A53G U54C U57A U69C | < 1e-05
A6U C50G A52U C61G C68U | 4.51e-05 ± 1.6e-05
A6U U30A U31C A36C | < 1e-05
G7A A52U U57C | < 1e-05
G7A C10U C16U A33U C67U | < 1e-05
G7A C10U G29C A36C A52U | < 1e-05

Variant | self-cleavage kobs at 10000 uM GlcN6P [s⁻¹]
G7A G32C G37A | < 1e-05
G7C G59U | < 1e-05
G7C U31C G63U | < 1e-05
G7U A15U A33G | < 1e-05
G7U A15U C50G A53U U55G G62U | 7.67e-05 ± 2.5e-05
G7U G29A G44C U47G G66A | < 1e-05
G7U G37A G40C | < 1e-05
C8A A52C G62A | < 1e-05
C8G A48U C67G | < 1e-05
C8G G9U G66C C68G | < 1e-05
C8G G29C G37A G38U C58G | < 1e-05
C8G G41A G63U C67G | < 1e-05
C8U A36U U45A | < 1e-05
C8U C10A A48G U65A | < 1e-05
C8U G51U U69A | 0.000401 ± 0.00014
C8U U45G C50U U65C | < 1e-05
G9A A15U U31C A42U G51A U56C | < 1e-05
G9A A36U U45A A64C | < 1e-05
G9U A52U C67U | < 1e-05
G9U U46G U54A G63A | < 1e-05
G9U U47G C50A G60U | < 1e-05
C10A G13U C67U | < 1e-05
C10A G29C A52U | < 1e-05

Variant | self-cleavage kobs at 10000 uM GlcN6P [s⁻¹]
C10A G38C C67U | < 1e-05
C10G G13U A15G | < 1e-05
C10U A22C G40C U56C C58A | < 1e-05
C10U A42G C58G C71A | < 1e-05
C10U A48G A53G | < 1e-05
C10U G38U U46A C58U | < 1e-05
C10U U31C A39C G43U | < 1e-05
C11A C34G G62U C68G | < 1e-05
C11G C16G G29U G38C A39U U49A C67U U69G | < 1e-05
C11U A15G C58G C68U | 0.000112 ± 2.5e-05
C11U U55G U65A | 4.36e-05 ± 2e-05
A12C G38A A42G C70U | < 1e-05
A12G G13U U56G C61U C68G C70A | 4.15e-05 ± 1.7e-05
A12G G29A U46C | 6.56e-05 ± 1.2e-05
A12G G44U C58G | < 1e-05
A12U U31G U55C U65A | 0.0008 ± 0.00013
A12U U49C U56G | < 1e-05
G13C C61G | < 1e-05
G13C G38A A42U C61U C67G | < 1e-05
A14C U30G A33G G37A C68G | < 1e-05
A14C U57A C67A | 3.08e-05 ± 1.4e-05
A14U A15C G51U | < 1e-05
A14U G32C G38C A52G | < 1e-05

Variant | self-cleavage kobs at 10000 uM GlcN6P [s⁻¹]
A15C A36C G40C | < 1e-05
A15G C16U G29C | 0.00377 ± 0.00075
A15U A33C G37A U65C | < 1e-05
A15U A33C G41C | < 1e-05
A15U C34A A39C U54A G59C | < 1e-05
C16A G35C A64C | < 1e-05
C16U G29C G35U A39G | < 1e-05
C19U C68U | 0.00423 ± 0.0011
G29A A64G C67G | 5.14e-05 ± 2e-05
G29C U30G G62U | < 1e-05
G29U A33C G60U G63U | < 1e-05
G29U G35C G43C G59A | < 1e-05
G29U U55G G60C | < 1e-05
U30A U54A C61G G63U | < 1e-05
U30G U45A C71G | 0.000315 ± 5.9e-05
U30G U49A C68A | < 1e-05
U31A A36C | < 1e-05
U31C A33U G62A | < 1e-05
U31G G35U G37A U65C | < 1e-05
G32U C34G G35C | < 1e-05
G32U C34G G40A | < 1e-05
